Data taken from PubChem BioAssay AID1963576 (National Center for Advancing Translational Sciences (NCATS), 2024).
Screen size: about 46,000 compounds; about 60 (0.1%) were called active. Roughly 3% stayed inconclusive and do not appear here. The call rests on the fitted dose curve; in most records, active means well fitted inhibition curve with a large enough effect; inconclusive means small, poorly fitted or top-dose-only effect; inactive means no such curve, though single readings can be large or run the other way. Some of the results follow.

assay: Primary qHTS assay for Inhibitors of ovarian cancer metastasis using an organotypic tumor microenvironment (TME) model.; further: nearly all actives have a fitted effect of over 65% in size;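 on activity change, negative = inhibition: plate controls were DMSO wells for no effect and tomatine positive control wells for full effect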; conditions: SKOV3ip1-GFP adhesion/invasion on 3D omental model, fluorescence; series mostly up to 45.8 µM; activity change, negative = inhibition: at the top concentration
Procedure, shortened: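 A 3D layer of primary human omental fibroblasts, mesothelial cells, fibronectin and collagen I, grown 48 hr, received SKOV3ip1-GFP cells in serum-free medium plus compounds at 0.36-46 umol/L. After 2 hr RT and 16 hr 37 C, fixed adherent GFP cells were counted; normalized to DMSO and tomatine.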

Activity change, negative = inhibition, inactive:
COc1ccc(Cl)cc1NC(=O)Cc1coc2c(C)c(C)ccc12 -2.31%
COc1cccc(-c2cc(C(=O)N3CCN(c4ccccc4OC)CC3)no2)c1 1.88%
CCC(CC)C(=O)Nc1c(C(=O)N2CCN(c3ccccc3)CC2)oc2ccccc12 -3.36%
Cc1cc(C)c2c(=O)cc(C(=O)Nc3nc4ccc(F)cc4s3)oc2c1 6.14%
NC(=O)c1cccc(N)c1 12.5%
Cc1cccc(CSc2nc3cc(C(=O)NC4CCCC4)ccc3c(=O)n2Cc2ccccc2)c1 -0.84%
Cc1coc2cc3oc(=O)c(CC(=O)N4CCCCC4)c(C)c3cc12 0.346%
Cc1ccc(-n2nc(C(C)(C)C)cc2NC(=O)Nc2ccc(OCCN3CCOCC3)c3ccccc23)cc1 26.3%
CC1CCCCN1C(=O)c1ccc2c(c1)N(Cc1cccc(Cl)c1)C(=O)c1ccccc1S2=O (configuration not stated) -3.52%
COc1ccc(CNC(=O)CCc2c(C)nn(-c3ccc(N4CCCCC4)nn3)c2C)cc1 21.7%
CCc1ccc(-n2nc3cc(C)c(NC(=O)c4ccccc4C)cc3n2)cc1 -1.12%
CCOc1ccc(-c2c(C)nn3c(C)c(C(=O)NCc4ccc(Cl)cc4)cnc23)cc1OCC 2.55%
CC1CCN(c2nc3c(-c4cccc(Br)c4)nnn3c3ccccc23)CC1 9.35%
COc1ccc(CCNC(=O)c2cc(=O)c3cc(C)cc(C)c3o2)cc1OC 7.73%
N=c1n(CCO)c2ccccc2n1Cc1ccccc1F -3.66%
Cc1ccc(-c2cc(C(=O)OCC(=O)c3ccccc3)c3cccc(Cl)c3n2)cc1 -4.68%
CCC(Sc1nc2ccccc2c2nc(CCn3c(C)nc4ccccc43)nn12)C(=O)Nc1ccc(F)cc1 (configuration not stated) 1.64%
COc1ccc(Br)c(C(=O)Nc2cc3c(cc2N2CCCC2)n(C)c(=O)c(=O)n3C)c1 12.9%
O=C(OCc1ccco1)c1ccc2c(c1)N(Cc1cccc(F)c1)C(=O)c1ccccc1S2 15.7%
Cc1ccc2oc(=O)c3cc(C(=O)N(Cc4ccccc4)C(C)C)sc3c2c1 8.3%
CNC(=O)c1ccc(C)c(-n2c(C)cc(OCc3ccc(F)cc3F)c(Br)c2=O)c1 5.3%
O=C(CSc1oc(-c2ccco2)nc1S(=O)(=O)c1ccc(Cl)cc1)c1ccc(Cl)cc1 -1.82%
Cc1ccc(S(=O)(=O)Nc2cc3c(cc2N2CCOCC2)n(C)c(=O)n3C)c(C)c1 9.52%
CCN1CCC(N(Cc2cccc(OC)c2)C(=O)Nc2ccc(C)cc2Cl)CC1 -6.81%
Cc1ccc(CSc2nc(=O)c3c(n2C)NC(=O)CC3c2ccc(OC(C)C)cc2)cc1 (configuration not stated) 4.79%
CCC(C(=O)Nc1cccc(C#N)c1)n1c(=O)c(-c2ccccc2NC(C)=O)nc2ccccc21 (configuration not stated) -0.167%
COC1=C2C[C@@H](C)C[C@H](OC)[C@@H](O)[C@@H](C)C=C(C)[C@H](OC(N)=O)[C@@H](OC)C=CC=C(C)C(=O)NC(=CC1=O)C2=O -4.79%
COc1ccc(-c2c3c(=O)n(C)c(=O)n(C)c3c3c(-c4ccc(C)cc4)nc4ccccc4n23)cc1 -5.91%
Cc1ccc(NC(=O)Cn2c(-c3ccc4c(c3)OCO4)cn(-c3ccccc3)c2=O)cc1 10.6%
Cc1ccc(C)c(NC(=O)CCCn2nc(C)c3sc4ccccc4c3c2=O)c1 3.4%
Cc1cc(O)c(C(c2ccccc2Cl)N2CCN(c3ccccc3)CC2)c(=O)n1Cc1ccco1 (configuration not stated) 3.29%
CCc1nnc(NC(=O)CSCc2cc(=O)c3ccc(C)cc3[nH]2)s1 1.14%
COc1cc(NC(=O)c2cnn(-c3cccc(F)c3)c2C2CCNCC2)cc(OC)c1OC -9.2%
CCCN(CCC)CCNC(=O)c1cc2c(-c3ccccc3F)nn(C)c2s1 -20.2%
COc1ccc(NC(=O)CN(Cc2ccccc2)S(=O)(=O)c2ccc3nc(C)sc3c2)cc1 -7.01%
Cc1ccc(NC(=O)c2cccn2-c2nnc(N3CCCCC3)s2)cc1Cl 5.67%
O=C1c2oc3ccc(F)cc3c(=O)c2C(c2cccc([N+](=O)[O-])c2)N1CCCN1CCOCC1 (configuration not stated) 2.7%
CCOc1ccc(-c2cnc(NCc3ccc(OC)cc3OC)n2C)cc1 -7.42%
O=C(NCc1ccc(F)cc1)c1ccc(NC(=O)N2CC3CCCN3c3ccccc32)cc1 (configuration not stated) -19%
COCCNC(=O)C1CCCN(S(=O)(=O)c2ccc3c(ccn3C)c2)C1 (configuration not stated) 2.63%
CN1C2CCC1CC(OC(=O)C(CO)c1ccccc1)C2 (configuration not stated) -9.9%
CCc1c(C)sc2c1CCN(Cc1ccc(F)cc1)C2c1ccccc1 (configuration not stated) -1.09%
COc1ccc(CNC(=O)COCc2cc(-c3cccs3)on2)cc1OC 8.5%
COc1ccc(Cl)cc1NC(=O)CCC(=O)c1ccc(C)cc1 0.827%
CC(=O)c1ccc(NC(=O)c2ncn(-c3ccccc3)n2)cc1 -4.58%
CCc1ccc(CN(C(=O)c2cc3ccccc3oc2=O)C2CCS(=O)(=O)C2)cc1 (configuration not stated) -8.68%
Cc1ccc(CSc2cn(CC(=O)N3CCCCC3)c3ccccc23)cc1 -60.8%
Cc1ccc2nc(N(Cc3cccnc3)C(=O)C3COc4ccccc4O3)sc2c1 (configuration not stated) 5.01%
CC(=O)Nc1cccc(C(=O)NCc2ccc3c(c2)CCN3C(C)=O)c1 -1.34%
CC(=O)c1[nH]c(C)c(C(=O)NCCc2ccc(C)cc2)c1C 0.247%
Cc1ccc(C2=Nc3ccccc3N(CC(=O)Nc3cccc(F)c3)C(=O)C2)cc1C -7.45%
CCn1cc(C(=O)NCCc2ccccc2)c(=O)c2cc(S(=O)(=O)N(C)C3CCCCC3)ccc21 -20.8%
Cc1cc(C)c(NC(=O)CSc2nccn2Cc2ccco2)c(C)c1 4.29%
CCOc1ccccc1N(C)C(=O)C1CCCN(c2ncnc3onc(-c4ccc(F)cc4)c23)C1 (configuration not stated) 4.63%
O=c1oc2c3c(ccc2c2ccccc12)OCN(Cc1cccc(Cl)c1)C3 -4.51%
Cc1ccc(NC(=O)CCCn2c(=O)c3cccn3c3cccnc32)c(Cl)c1 -15.9%
CN(C)CCCNc1oc(/C=C/c2ccc(F)cc2)nc1C#N -8.54%
O=C(c1ccc2c(c1)OCCO2)N(Cc1cccnc1)c1nc2ccc(F)cc2s1 8.37%
O=c1[nH]c(SCc2ccc(F)cc2)nc2c1CCCC2 0.478%
O=C(Cn1cc(SCc2cccc(Cl)c2)c2ccccc21)N1CCOCC1 -22.5%
CC1CN(C(=O)N2CCC(C(=O)NC3CCCCCC3)CC2)c2cc(Cl)ccc2O1 (configuration not stated) 2.64%
Cc1cc(C)n2nc(CNS(=O)(=O)c3ccc(Cl)cc3)nc2n1 1.71%
COc1ccccc1N1CCN(S(=O)(=O)c2ccc(F)c(C(=O)Nc3ccc(C)c(F)c3)c2)CC1 -1.31%
COc1ccc(CNC(=O)C2CCCN(S(=O)(=O)c3ccc4c(c3)CCCN4C(C)=O)C2)cc1 (configuration not stated) 7.81%
CCc1nnc2c(NCc3ccc(F)cc3)nc3ccccc3n12 -0.113%
CCC(=O)N1CCc2cc(Br)cc(S(=O)(=O)N3CCN(c4ccccc4)CC3)c21 -9.54%
COc1ccc(NC(=O)c2ccco2)cc1NC(=O)COc1cc(C)cc(C)c1 3.42%
CCOc1ccc(-c2n[nH]c3c2C(c2ccccc2OC)N(c2ccc(Br)cc2)C3=O)cc1 (configuration not stated) 10.3%

outcome, inactive:
Cc1ccc(CNS(=O)(=O)c2ccc(-c3cnc(C4CC4)o3)cc2)cc1
CCc1cccc(NC(=O)Cn2c(=O)c(C(F)(F)F)nc3ccccc32)c1
Cc1cc(N(C)Cc2ccccc2)n2nc(-c3ccc(C(C)(C)C)cc3)nc2n1
CCCCNC(=O)c1cccc(-n2cnc3cccnc32)c1C
CCCCCn1c(=O)[nH]c2cc(C(=O)NCCN(C)CCCC)ccc2c1=O
CCC(NC(=O)Nc1cc(Cl)ccc1OC)c1c(-n2cccc2)sc2c1CCN(C)C2 (configuration not stated)
COc1ccc(OCCn2nnc3sc4c(c3c2=O)CCC(C(C)(C)C)C4)cc1 (configuration not stated)
O=C(CSc1c2c(nc3ccc(Cl)cc13)CCCC2)NCc1ccccc1Cl
CCOc1ccccc1NC(=O)CC(c1ccc(F)cc1)N1Cc2ccccc2C1=O (configuration not stated)
Cc1ccc(CN2c3ccccc3S(=O)(=O)c3ccccc32)cc1
COc1ccc(CNC(=O)CC2N=C3c4ccccc4N=C(SCC(=O)Nc4ccc(N(C)C)cc4)N3C2=O)cc1 (configuration not stated)
CCCCCNC(=O)C(=O)NCC(c1ccc2c(c1)OCO2)N1CCOCC1 (configuration not stated)
Cc1ccc2c(c1)c1c(c(=O)n(Cc3ccccc3)c(=O)n1CC(=O)Nc1ccccc1C)n2C
COc1cc(CN(C(=O)COc2ccc(C)c(C)c2)c2ccccn2)cc(OC)c1OC
Cn1nc(C(=O)N2CCN(c3ccccc3F)CC2)c2c1-c1ccccc1SC2
CCCCN(CC)CCCNC(=O)c1cc2c(-c3ccc(OC)c(OC)c3)nn(C)c2s1
CCN(CC)CCNC(=O)Cn1ncc2c([nH]c3ccccc32)c1=O
CCCCNC(=O)CCCn1c(=O)c2ccccc2n(Cc2ccccc2C)c1=O
COc1ccc(-c2noc(-c3ccc(NCc4ccccc4OC)c([N+](=O)[O-])c3)n2)cc1
O=C(CN1CCN(Cc2ccc(Cl)cc2)C1=O)NCc1ccc(F)cc1
Cc1c(CCNC(=O)Cc2ccccc2)sc2nc(-c3ccc(F)cc3)nn12
CCN(CC)CCCNC(=O)c1cc(-c2ccc(OC)c(OC)c2)on1
Cc1ccc(NC(=O)Cn2c(=O)n(Cc3ccco3)c(=O)c3ccccc32)cc1
CCOc1ccc(CNC(=O)c2cc3c(=O)n(C)c4ccccc4c3s2)cc1
COc1cc(C(=O)NC2CC(=O)N(c3cccc(F)c3)C2)cc(OC)c1OC (configuration not stated)
COc1ccc(-c2ccnc3c(-c4ccc(F)cc4)c(C)nn23)cc1OC
Cc1ccc(NC(=O)C2CCCN2S(=O)(=O)c2cccc3cccnc23)cc1 (configuration not stated)
CCOc1ccc2nc(N3CCCC(C(=O)Nc4ccc(Br)c(C)c4)C3)sc2c1 (configuration not stated)
O=C(Nc1cc(Cl)cc(Cl)c1)c1ccc(F)c(S(=O)(=O)N2CCCCCC2)c1
